Here are results for 120 sequences from the supplement of paper PMC10126150.

Sequences with one replicate were seen in a single cluster, so their values are uncertain.
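Note: ATP exposure 15 min at 22 °C before imaging.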

This data set concerns ATP. Put plainly: switch fluorescence ratio, 500 uM ATP over buffer (Cy3 cluster intensity, sum of 5 cycles each) (fold (ratio)); higher = stronger signal-on switching upon ATP binding; sequences stand for … in TCGTCGGCAGCGTCAGATGTGTATAAGAGACAGTTTTTTTTTTTTTTTTTTTTTTTTT…TC. As to conditions: aptamer strand: ATP DNA aptamer (quencher-CACCTGGGGGAGTATTGCGGAGGAAGG + anchor), 100 nM annealed; ATP concentration: 500 uM; one replicate. The procedure, abridged: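 Between each of five buffer/ATP cycles, the flow-cell was stripped with NaOH and re-annealed. Each cycle imaged Cy3-labelled switching-strand clusters, annealed to 100 nM quencher-labelled ATP aptamer on a modified Illumina MiSeq flow-cell, first in selection buffer and then after 15 min with 500 uM ATP at 22 °C. The fluorescence ratio is summed target-cycle over summed buffer-cycle Cy3 intensity per cluster, averaged per switch-domain sequence, with clusters outside 100-1000 RFU excluded.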
For the sequence AGACGGTGAC, the switch fluorescence ratio was 1.08.
In the case of GAAGCTAAAT it was 1.08; in that of TCTGGGGAAA, 1.22.
Take AGCTAAGAGA: the switch fluorescence ratio worked out at 0.965.
In the case of AGATATACGC it was 1.04.
In the case of TAACGTAATG it was 1.22; in that of TCTGATGATA, 1.01; in that of TGTTAGGTTG, 0.949.
For the sequence ACTACTTATT, the switch fluorescence ratio is 1.01.
The value for AAGCATTATG was 1.03; that for GTGGGGCCGG was 0.991.
The value for CGAATGTGTG was 0.98; that for ACATGATCCT was 1.03; that for ATCGACTAA was 0.984.
With GGTGGTTAGC, the switch fluorescence ratio is 0.978.
In the case of TTATGCTTGC it was 0.966; in that of AAGATCTGGG, 1.
CGTGGAATG: the switch fluorescence ratio came to 0.987.
In the case of CGTACGGTGG it was 0.961.
The value for TCGATTTTTC was 1.1; that for GAGCACCGCT was 1.01.
In the case of AGATTGACAT it was 1.04.
On to ACTGCTAATG, for which the switch fluorescence ratio came to 1.03.
For the sequence GAATTGCCTG, the switch fluorescence ratio was 1.06.
In the case of TGTAAGATGG it was 0.975.
Consider CTATCCTTTG, for which the switch fluorescence ratio is 0.988.
In the case of TCAGGTGTTG it was 1.41; in that of AATGTCAGGT, 0.948; in that of AACAAATAGG, 0.994.
In the case of ATGCTGGCGT it was 0.996; in that of ATACCGACTG, 1.12; in that of AAGCTAAAGA, 0.992.
In the case of ACCGGGCAGG it was 1.06; in that of GTCGCTCAC, 1.17; in that of CACTCCTATA, 1.11.
As to AAACGCTTT, the switch fluorescence ratio turned out to be 1.02.
The value for AGGTCTCACA was 0.995; that for CCTGGTATCA was 0.97; that for ATCGAACAC was 0.99.
Take TATATTAGTA: the switch fluorescence ratio came out at 0.965.
With CGTAAACTCA, the switch fluorescence ratio was found to be 1.11.
The value for CGTCTTTTGT was 0.993; that for AATCGGCAGG was 0.993; that for ACACTGTCGC was 1.08.
Take GCTAGCTACG: the switch fluorescence ratio is 0.997.
GCTTGGGGTA: the switch fluorescence ratio was 0.951.
In the case of AAAGTTCAAA it was 0.971; in that of CTCAGCCGCG, 1.04; in that of ACCAAGCTCT, 0.981.
The value for GATATTACAC was 1.04.
In the case of GAGCAAGCAT it was 1.1; in that of GACATTACCA, 1.22.
As for AATCGGTATA, the switch fluorescence ratio was determined as 1.01.
With ATCAATCGTT, the switch fluorescence ratio is 0.987.
In the case of TTTCAGGCCC, the switch fluorescence ratio is 1.01.
As to TAGGTACGGC, the switch fluorescence ratio stood at 1.01.
The value for CCATGGCCGC was 1.18.
In the case of GAAGTCAAGT it was 1; in that of AGATATAGCC, 0.947; in that of GTAGAAAAAT, 1.07.
In the case of TATGAGAT it was 1.03; in that of CAGCTACAGA, 0.995; in that of CCTTGACGTG, 0.989.
For the sequence ACTTATCTA, the switch fluorescence ratio worked out at 1.
Take GTGGGTAGCT: the switch fluorescence ratio stood at 1.01.
For the sequence CGTTGTGACA, the switch fluorescence ratio came to 0.994.
Regarding CATTCCGGTT, the switch fluorescence ratio came to 1.02.
The value for TCTTTGAGG was 0.995; that for CATATATAAG was 0.997; that for AGAGGGCCGT was 1.
In the case of GAGAACAGTA it was 0.997; in that of GACAACAGGG, 1.16; in that of TTTCAAAATC, 1.05.
In the case of CGATGTGCCA it was 1.07; in that of TACTTCGCCA, 2.42.
CATATATGCC: the switch fluorescence ratio was 1.
Regarding CAATGTTTT, the switch fluorescence ratio was determined as 1.
Consider GTCGTTGTCT, for which the switch fluorescence ratio came to 1.04.
The value for GGCCTTGTTG was 1.04.
For the sequence CGCCCATGAA, the switch fluorescence ratio amounted to 1.05.
For the sequence TCGATGGTA, the switch fluorescence ratio worked out at 0.962.
In the case of GGCGGATGCC it was 0.997; in that of GTGTTATTCA, 1.03; in that of CCTCGGATCC, 1.39.
With TGGTATAACA, the switch fluorescence ratio amounted to 1.04.
Regarding TACGTTGTAG, the switch fluorescence ratio was 1.
For the sequence AACTTTTCAA, the switch fluorescence ratio amounted to 0.977.
Take GGAGCATTCC: the switch fluorescence ratio is 1.76.
In the case of CGTGGTCGAC it was 1.04; in that of TTAGGCAGA, 1.02; in that of GGTGGTTTAT, 0.994.
In the case of GTTGCATTGA it was 0.982; in that of CAGGAGGTGG, 0.961; in that of GCCAGGACTG, 1.03.
The value for ACATTAAGC was 1.03; that for AGGTTCGCCT was 0.976; that for CTGGGAACGT was 1.02.
Turning to GTTAGTGGCC, the switch fluorescence ratio came to 1.02.
In the case of ACTTCATATC it was 1.02; in that of AGCTCCTATG, 1.03; in that of CTTAACTTTT, 1.06.
In the case of GTAAGAATTT it was 0.994.
The value for GATTATCCCC was 1.03; that for AAGGCATGT was 0.996; that for AGTTCTCTGC was 1.01.
With ACTTATAAGT, the switch fluorescence ratio was found to be 0.969.
For TCAATTCCGG, the switch fluorescence ratio was determined as 1.03.
In the case of CGACCATTCT it was 1.14.
Consider TACATACTGA, for which the switch fluorescence ratio was determined as 1.3.
In the case of TCGTTCTCCC it was 1.17.
The value for CGCTCCTGGG was 1.1; that for AGCGGCCGCT was 0.999.
The value for CTGACTCGG was 1.07.
Turning to GCCCTGAATC, the switch fluorescence ratio worked out at 1.03.
In the case of TATGTCTGGG it was 0.93; in that of AGCGATTTGC, 1.02.
In the case of TGTCCACGGA it was 1.06; in that of CTGTTGCTAA, 1.05.
In the case of TTAGGCGCAA it was 3.63.
With GAAGAACTAC, the switch fluorescence ratio came out at 1.3.
